Source: the BET-seq Pho4 binding data (Le et al. 2018)
This is one part of the list. The energies were worked out here from pooled read counts, against the library average; single values are noisy.

Each sequence was assayed against T1, Pho4 (S. cerevisiae) (UniProt P07270) (assay: relative binding free energy (BET-seq); higher = weaker binding). Conditions: reference: library average.
T1 sequence: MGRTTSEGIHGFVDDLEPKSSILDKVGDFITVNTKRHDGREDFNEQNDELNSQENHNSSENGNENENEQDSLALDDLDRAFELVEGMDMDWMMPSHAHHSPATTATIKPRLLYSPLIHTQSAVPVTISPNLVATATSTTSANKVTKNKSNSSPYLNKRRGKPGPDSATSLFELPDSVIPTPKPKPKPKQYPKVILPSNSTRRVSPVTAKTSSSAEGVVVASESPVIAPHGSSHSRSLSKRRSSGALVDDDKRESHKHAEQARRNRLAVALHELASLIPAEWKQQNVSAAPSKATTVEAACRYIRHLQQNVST

Sequence | relative binding free energy [kcal/mol]
TAGCGCACGTGAGTAT | 0.08
AGGTTCACGTGTGTTG | 0.28
GAACGCACGTGGGGTT | -0.16
TTGGACACGTGCAGTC | 0.23
CGCTCCACGTGGGGGG | -0.22
ATTGGCACGTGTTGAC | -0.07
GGATTCACGTGAGCTG | 0.32
TTGCCCACGTGGGTGT | -0.35
TTTGTCACGTGCGGAT | 0.08
AGATTCACGTGTGGAA | 0.29
AGTTGCACGTGTATGT | 0.13
TTGGGCACGTGAGGAT | 0.15
AATTGCACGTGTTGTT | 0.08
CATATCACGTGTTTGG | 0.2
TCATTCACGTGTTAGG | 0.3
CGTTGCACGTGGTACG | -0.1
CTTATCACGTGCGTGG | 0
CGTGTCACGTGTTTCA | 0.08
TTAATCACGTGAGCGT | 0.23
ATTATCACGTGGGAGA | -0.06
TGGCGCACGTGAGGTG | 0.03
TAGCTCACGTGTGATG | 0.19
ATTAGCACGTGGGGGA | -0.16
TTATTCACGTGGGGGC | 0.24
GATACCACGTGGGTGG | -0.18

Sequence | relative binding free energy [kcal/mol]
GTGACCACGTGTTGTG | -0.04
TATGCCACGTGTAGAG | 0.02
ATTGGCACGTGTAGTA | -0.06
ATGGTCACGTGATCAG | 0.08
GTGCGCACGTGAGGGG | 0.11
ATGGACACGTGGGACT | -0.04
AAAGGCACGTGTATAT | -0.04
TTGCACACGTGTATTT | 0.16
GCTGGCACGTGGATGT | 0.08
AGTTACACGTGAGGGT | 0.23
ACAGTCACGTGGAGTT | 0.07
TGGGACACGTGCGGTT | 0.03
GGTTTCACGTGAAGTA | 0.38
TGGTGCACGTGCATTG | -0.01
ATGGACACGTGGTCGA | -0.04
CTTGGCACGTGCTGTT | -0.17
TATGACACGTGGTGTT | 0.01
AAAGGCACGTGGAGTC | 0.06
GTAAGCACGTGAGGCT | 0.21
GGTGTCACGTGTGATC | 0.21
TAAGACACGTGGGGGG | -0.05
ATCGGCACGTGTGTAT | 0.09
ATGGACACGTGGATGT | 0.22
GTATTCACGTGAGGAG | 0.45
TATGGCACGTGGGGCG | -0.21

Sequence | relative binding free energy [kcal/mol]
TATATCACGTGGTGGA | 0.11
GGGATCACGTGCCGGG | 0.2
GTAGGCACGTGTCAGT | -0.02
GTTGCCACGTGAGTGT | 0.17
TGATGCACGTGGAGTA | -0.09
TTGAACACGTGCGTGT | 0.01
TGGGACACGTGGATAA | 0.08
CGGTGCACGTGGTCTT | -0.06
ATTTTCACGTGGGCTG | 0.23
TCGTTCACGTGTTGAA | 0.28
AGCGTCACGTGTAGTT | 0.06
CGGTGCACGTGCAGGT | -0.06
TGTGGCACGTGAGCGA | 0.01
TTGATCACGTGGGAAA | 0.32
AGGATCACGTGGTGAA | 0.08
GAGGTCACGTGACGTT | 0.31
TGTTACACGTGTGCTA | 0.04
AACATCACGTGGGGAT | 0.18
TTGGTCACGTGAGCAG | 0.23
AAAGTCACGTGCTTTT | 0.1
AGGTTCACGTGGTGCA | 0.16
TCGAGCACGTGATGAG | 0.22
ATCGTCACGTGGTGGT | 0.02
